# From the antibiotic and cytotoxicity screens of Wong et al. (2023)
# Some of the results follow.
# Assays:
# HSkMC = human skeletal muscle cells; test: cytotoxicity call (relative viability < 0.9); details: 10 µM
# HepG2 = test: cytotoxicity call (relative viability < 0.9); details: 10 µM
# S. aureus RN4220 = test: growth inhibition call (relative growth <= 0.2); details: 50 µM
Structure (SMILES),cytotoxicity call (HSkMC),cytotoxicity call (HepG2),growth inhibition call (S. aureus RN4220)
COc1ccc(S(=O)(=O)Nc2cccc3c2O[C@@H](CN(C)CC2CC2)[C@@H](C)CN([C@H](C)CO)C3=O)cc1,inactive,inactive,inactive
CC(C)NC(=O)Nc1ccc2c(c1)CC(=O)N([C@@H](C)CO)C[C@H](C)[C@@H](CN(C)S(=O)(=O)c1cccs1)O2,inactive,inactive,inactive
C[C@H]1CCCCO[C@H](CN(C)Cc2ccc(C(=O)O)cc2)[C@@H](C)CN([C@@H](C)CO)C(=O)c2cc(NC(=O)Nc3ccc(C(F)(F)F)cc3)ccc2O1,inactive,inactive,inactive
C[C@@H]1CN([C@@H](C)CO)C(=O)c2c(c3ccccc3n2C)-c2ccccc2CO[C@H]1CN(C)Cc1ccc(C(F)(F)F)cc1,active,inactive,inactive
Cc1cc(C(=O)Nc2cccc3c2O[C@@H](CN(C)S(=O)(=O)c2cn(C)cn2)[C@@H](C)CN([C@@H](C)CO)C3=O)n(C)n1,inactive,inactive,inactive
C[C@@H]1CN([C@H](C)CO)C(=O)CCCn2cc(nn2)CO[C@H]1CN(C)S(=O)(=O)c1cn(C)cn1,inactive,inactive,inactive
COc1ccc2c(=O)ccoc2c1,inactive,inactive,inactive
Cc1cc(C(=O)Nc2cccc3c2O[C@H](CN(C)Cc2ccc(Oc4ccccc4)cc2)[C@H](C)CN([C@@H](C)CO)C3=O)n(C)n1,inactive,inactive,inactive
CC(C)C[C@H](NC(=O)[C@H](CCc1ccccc1)NC(=O)CN1CCOCC1)C(=O)N[C@@H](Cc1ccccc1)C(=O)N[C@@H](CC(C)C)C(=O)[C@@]1(C)CO1,active,active,inactive
